Measured values reported in a compilation of properties of binary mixtures (doi:10.1007/s10953-011-9785-0).
Some of these densities may be calculated back from excess volumes.

Assay: xn = mol fraction of the nth substance listed
Conditions: 101 kPa

CCO + CCCCCC[n+]1ccn(CCC#N)c1.[Br-]
x1 = 1
Conditions	mass density [kg/m3]
293.15 K	789.3
298.15 K	785.5
303.15 K	780.7
313.15 K	772.5
318.15 K	767.7
323.15 K	763.6

CCCCCC[n+]1ccn(CCC#N)c1.[Br-] + CCO
mass density [kg/m3]
Conditions	293.15 K	298.15 K	303.15 K	308.15 K	313.15 K	318.15 K	323.15 K
x2 = 0	1233.4	1229.7	1226.6	1223	1219.2	–	–
x2 = 0.0679	1227.3	1223.7	1220.6	1217.1	–	1209.7	1206.2
x2 = 0.1407	1219.4	–	–	1209.3	1205.6	1202	1198.5
x2 = 0.2074	1210.7	–	1204	1200.4	1196.7	1193	–
x2 = 0.3178	1192.9	1189.3	1186.1	1182.4	1178.7	1174.9	1171.3
x2 = 0.422	1171.9	1168.3	1164.9	1161.2	1157.5	–	1149.9
x2 = 0.5219	1146.5	1142.9	1139.3	1135.6	1131.8	1127.8	–
x2 = 0.5976	1122.6	1118.9	–	–	1107.6	–	1099.8
x2 = 0.7075	1077.3	1073.5	1069.6	1065.7	1061.9	1057.6	–
x2 = 0.7986	1024.8	1021.1	1017	–	1009.3	1004.9	1001
x2 = 0.8955	943.3	–	935.6	–	928.1	–	919.8
x2 = 0.9477	–	874.8	870.8	867.1	863.7	859.7	856.2
